Measured values from PubChem BioAssay AID686978 (National Center for Advancing Translational Sciences (NCATS), 2013).
Where “and” joins values, the source holds several entries; their conditions need not be identical. Equal values may be shown once. About 64,000 (15%) of roughly 420,000 compounds were called active. The shares of active, inactive and inconclusive entries below differ from those in the screen. Calls follow the shape of the dose curve; as a rule, active = well fitted inhibition curve with a large enough effect; inconclusive = small, poorly fitted or top-dose-only effect; inactive = flat fitted curve, though single readings scatter. A potency beside an inconclusive call is a rough fit, not a confirmed value.

Test: qHTS for Inhibitors of human tyrosyl-DNA phosphodiesterase 1 (TDP1): qHTS in cells in absence of CPT; also: nearly all actives have a fitted effect of over 55% in size
Settings: DT40 Tdp1-/- hTDP1 cells, no CPT, ATP luminescence, 48 h; activity change, negative = growth inhibition: at 46.2 µM (top of the series) unless noted
How it was run: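 Growth kinetics read by CellTiter-Glo luminescence after ≥48 hr at 37 °C. Cells: DT40 Tdp1-/- stably carrying human TDP1, 400 per well, compound exposure in the absence of CPT (DMSO vehicle).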
% is scaled to controls: 0 for no effect and ±100 for the full control effect; potency is read from the fitted curve at half-maximal effect; tags tell the direction and shape of the fitted curve.

| Compound | Potency | activity change, negative = growth inhibition |
| --- | --- | --- |
| O=C1NC(=O)N(c2ccccc2)C(=O)/C1=C/c1ccc(Sc2ccccc2)o1 | inconclusive: 35.5 µM [inhibitor, single point] |  |
| CN=C1CN(O)C(c2ccccc2)=c2cc(Cl)ccc2=N1 | inconclusive: 9.44 µM [inhibitor, partial curve, poor fit] and inconclusive: 18.8 µM [inhibitor, single point] |  |
| CCOc1cc2c(cc1OCC)-n1cccc1C(c1ccc(F)c(OC)c1)NC2 (stereo not given) | inconclusive: 16.4 µM [inhibitor, single point] |  |
| COC(=O)C1=C(c2ccc(OC)c(OC)c2)C[C@@H]2CC[C@H]1N2C(=O)NC1CC1 |  | inactive: -15.4% |
| COc1ccc(/C=C2/C(=O)NC(=O)N(c3ccc(C)c(C)c3)C2=O)cc1CN1C(=O)c2ccccc2C1=O | inconclusive: 29.1 µM [inhibitor, single point] |  |
| C[n+]1c2cc(N)ccc2cc2ccc(N)cc21 | active: 1.16 µM and active: 2.91 µM |  |
| CN1CCN(c2ccc(N)cc2Cl)CC1 | inconclusive: 29.1 µM [inhibitor, single point] |  |
| Oc1ccc2c3c1O[C@H]1c4[nH]c5ccccc5c4C[C@@]4(O)C(C2)N(CC2CC2)CCC314 (stereo not given in full) | inconclusive: 29.1 µM [inhibitor, single point] |  |
| CC(=O)OC1CC(OC2C(O)CC(OC3C(O)CC(OC4CCC5(C)C(CCC6C5CCC5(C)C(C7=CC(=O)OC7)CCC65O)C4)OC3C)OC2C)OC(C)C1OC1OC(CO)C(O)C(O)C1O (stereo not given) | active: 0.411 µM |  |
| COC(=O)C(O)(c1ccc(NC(=O)c2cccs2)cc1)C(F)(F)F (stereo not given) |  | inconclusive: -32.7% [inhibitor] |
| Cc1cc(OCC(=O)N2C[C@H]3C[C@@H](C2)c2cccc(=O)n2C3)c2c(C)c(C)c(=O)oc2c1 |  | inactive: -7.31% |
| COC(=O)C1=C(c2ccc(S(C)(=O)=O)cc2)C[C@@H]2CC[C@H]1N2C(=O)N1CCCC1 |  | inactive: 3.65% |
| COc1cc2c(cc1OC)C(C(=O)NCCC(C)C)C1CCCCN1C2=O (stereo not given) |  | inactive: -1.31% |
| Cc1ccc2c(c1)C1CN(C)CCC1N2 (stereo not given) | inconclusive: 2.99 µM [inhibitor, full curve] |  |
| Cc1cc(OC(C)C(=O)NCC(O)c2ccccc2)c2c3c(c(=O)oc2c1)CCCC3 (stereo not given) | inconclusive: 23.1 µM [inhibitor, partial curve] |  |
| CCCCCn1c(=O)c(C(=O)Nc2ncccc2C)c(O)c2ccccc21 | inconclusive: 25.9 µM [inhibitor, single point] |  |
| ClC1=C(Cl)C2(Cl)C3C(Cl)C=CC3C1(Cl)C2(Cl)Cl (stereo not given) | inactive and inconclusive: 10.3 µM [inhibitor, partial curve] |  |
| CCOC(=O)c1cc(-c2ccccc2)n(CCCC(=O)Nc2ccc(C)c(C)c2)c1C | active: 3.66 µM |  |
| O=[N+]([O-])c1ccc(CNCCc2ccccc2)cc1 | inconclusive: 23.1 µM [inhibitor, single point] |  |
| O=C(O)COc1ccccc1/C=C1\C(=O)NC(=O)N(CCC2=CCCCC2)C1=O |  | inactive: 0.529% |
| O=C(O)CCC(=O)OC[C@@H](NC(=O)C(Cl)Cl)C(O)c1ccc([N+](=O)[O-])cc1 (stereo not given in full) | inconclusive: 20.6 µM [inhibitor, single point] |  |
| Cc1cccc(NC(=O)CSc2ccc(-c3ccco3)nn2)c1 | active: 29.1 µM |  |
| O=C(Nc1ccc2nc(SCC(=O)N3CCCc4ccccc43)sc2c1)c1ccccc1F | active: 5.17 µM |  |
| CC12CCC(=O)CC1CCC1C2C(=O)CC2(C)C1CCC2(C)O (stereo not given) |  | inactive: 3.55% |

| Compound | Potency | activity change, negative = growth inhibition |
| --- | --- | --- |
| O=C(C1CCN(S(=O)(=O)c2ccc(Br)s2)CC1)N1CCN(c2ccc(F)cc2)CC1 | active: 20.6 µM |  |
| COc1cccc(C(c2nnnn2C2CCCCC2)N2CCC3(CC2)C(=O)NCN3c2ccccc2)c1OC (stereo not given) | inconclusive: 23.1 µM [inhibitor, single point] |  |
| CCCCn1c(N)c(N(CC(C)C)C(=O)c2cc(Br)c(Br)s2)c(=O)[nH]c1=O | active: 23.1 µM |  |
| Clc1ccc(CCNCc2ccncc2)c(Cl)c1 |  | inactive: -27.1% |
| COc1ccccc1S(=O)(=O)N(C)C[C@@H]1Oc2cc(C#CCC(C)C)ccc2S(=O)(=O)N([C@H](C)CO)C[C@@H]1C | inconclusive: 29.1 µM [inhibitor, single point] |  |
| Cc1cc(C)cc(NC(=O)CSc2oc(-c3cccs3)nc2S(=O)(=O)c2ccc(Br)cc2)c1 | active: 6.51 µM |  |
| Cn1cccc1CNCCc1ccc(F)cc1 |  | inconclusive: -32.1% [inhibitor] |
| CN1c2cc(O)c(N=NC(N)=O)cc2CC1S(=O)(=O)O (stereo not given) | inconclusive: 33.5 µM [inhibitor, single point] |  |
| CCCCn1c(=O)c(C(=O)Nc2ccccn2)c(O)c2ccccc21 | active: 4.11 µM |  |
| O=C1C=C2C=C[C@@H]3C[C@@]2(O1)[C@H]1CCCCN31 | active: 29.9 µM and active: 7.5 µM |  |
| O=C(Nc1ccc(Cl)cc1)Nc1ccc(Cl)c(C(F)(F)F)c1 | active: 3.35 µM |  |
| CCCCNC(=O)c1c(N)n(CCCOC)c2nc3ccccc3nc12 | inconclusive: 16.4 µM [inhibitor, single point] |  |
| CC(C)(C)NS(=O)(=O)c1ccc(OCC(=O)N2CCN(Cc3ccccc3)CC2)cc1 | inconclusive: 25.9 µM [inhibitor, single point] |  |
| CC(C)CNc1c2c(nc3ccccc13)CCC2 | active: 18.4 µM |  |
| C=C1C(=O)[C@@]23C[C@H]4[C@@H]5[C@@]6(C)CCC[C@@]57[C@@H]2[C@@H](O)[C@@H]1C[C@H]3[C@H]7N4C6 | active: 4.11 µM |  |
| COc1ccc(OC)c(-n2c(O)c(C=Nc3c(C)n(C)n(-c4ccccc4)c3=O)c(=O)[nH]c2=S)c1 |  | inactive: -13.6% |
| CCc1cccc(NC(=O)CN2C(=O)CN=C(c3ccccc3F)c3cc(Cl)ccc32)c1 | inconclusive: 18.4 µM [inhibitor, single point] |  |
| Oc1cccc[c]1[Hg][Cl] | active: 0.15 µM |  |
| CN1[C@H]2CC[C@@H]1C(C(=O)N1CCOCC1)=C(O)C2 |  | inactive: -4.73% |
| O=C1CN=C(c2cccc(Br)c2)c2cc(Br)ccc2N1 | active: 16.4 µM |  |
| CCOc1cc(CNC(C)C(O)c2ccccc2)cc(Cl)c1OCC (stereo not given) | inconclusive: 23.1 µM [inhibitor, single point] |  |
| COc1ccc2[nH]c3c(c2c1)CCN=C3C |  | inactive: -3.35% |
| C[C@@H]1OC(OC2C(OC3CC[C@@]4(C)C5CC=C6C7CC(C)(C)CC[C@@]7(C(=O)O)CCC6(C)C5(C)CCC4[C@]3(C)CO)OCC(O)C2O)C(O)C(O)C1O (stereo not given in full) | active: 16.4 µM |  |
| Cc1c(C(=O)N2CCC3(CC2)OCCO3)oc2ccccc12 |  | inactive: -0.655% |

| Compound | Potency | activity change, negative = growth inhibition |
| --- | --- | --- |
| CCOc1ccc(N=C2SCCCN2C)cc1 |  | inconclusive: -36.3% [inhibitor] |
| Cc1ccccc1-n1c(C)cc(/C=C2/C(=O)NC(=O)N(Cc3ccco3)C2=O)c1C | inconclusive: 16.4 µM [inhibitor, single point] |  |
| O=c1[nH]c(=S)[nH]c(O)c1N=Nc1ccc2c(c1)OCCO2 | active: 25.9 µM |  |
| COC(=O)C1=C(c2ccc(F)cc2OCc2ccccc2)C[C@@H]2CC[C@H]1N2C(=O)NC1CCN(Cc2ccccc2)CC1 | active: 23.1 µM |  |
| CC(C)Nc1ccc(Nc2ccccc2)cc1 | active: 13.3 µM and active: 6.51 µM |  |
| Cc1cc(C(=O)NP(=O)(N2CCOCC2)N2CCOCC2)c(C)n1C1CC1 |  | inactive: -2.98% |
| CC1(C)C(O)CC(=O)[C@]2(C)C1CC(=O)[C@]1(C)C2CC[C@@]2(C)C(c3ccoc3)OC(=O)C3O[C@@]321 (stereo not given in full) |  | inactive: -16.9% |
| Cc1cc(OC(C)C(=O)NCc2ccncc2)c2c3c(c(=O)oc2c1)CCCC3 (stereo not given) | inconclusive: 25.9 µM [inhibitor, single point] |  |
| Cc1cccc(CN2CCN(Cc3ccc(Cl)cc3)CC2)c1 | active: 20.6 µM |  |
| C[C@]12CCC(=O)C[C@H]1CC[C@@H]1[C@@H]2CC[C@]2(C)C(=O)CC[C@@H]12 | inconclusive: 32.6 µM [inhibitor, single point] |  |
| O=c1[nH]c(=S)[nH]c(O)c1C(c1ccccn1)c1c(O)[nH]c(=S)[nH]c1=O |  | inactive: -6.97% |
| CCOc1ccc(C2C(C#N)=C(N)Oc3c2c(=O)oc2ccccc32)cc1 (stereo not given) | inconclusive: 23.1 µM [inhibitor, partial curve] |  |
| CCNC(=O)O/N=C(\C)c1sc(-c2ccc(Cl)cc2)nc1C | active: 18.4 µM |  |
| N#CCCn1cc(C(=O)Nc2ccccc2Cl)c(-c2ccc(F)cc2)n1 |  | inactive: -1.66% |
| CCOC(=O)[C@]12Cc3cc(C)ccc3[C@H]1N(C)C(=O)c1cc(OC)ccc12 | active: 23.1 µM |  |
| CNC(=O)NC(O)C(Cl)(Cl)Cl (stereo not given) | inactive |  |
| CC(=O)OC1CCC2(/C=N/O)C(=CCC3C4CCC(=O)C4(C)CCC32)C1 (stereo not given) | inconclusive: 32.6 µM [inhibitor, single point] |  |
| O=C(CSc1nc2ccccc2c(=O)n1-c1ccccc1)Nc1ccc2c(c1)CCC2 | active: 20.6 µM |  |
| CC(C)CN(CC(C)C)C(=O)C1C2c3ccccc3C(c3ccccc32)C1C(=O)O (stereo not given) | inconclusive: 29.1 µM [inhibitor, single point] |  |
| CC(C)CC(NC(=O)C1CCCCC1)C(=O)N1CCC2(CC1)OCCO2 (stereo not given) | inconclusive: 23.1 µM [inhibitor, single point] |  |
| O=C(CC1CCCCC1)N1CCC(c2nc(-c3ccc(S(=O)(=O)N4CCCC4)cc3)no2)CC1 | active: 8.2 µM |  |
| COC(=O)C1(C(=O)OC)C[C@H](c2ccc(OC)cc2)N(Cc2ccccc2OC)[C@@H]1c1ccccc1 | inconclusive: 16.4 µM [inhibitor, single point] |  |
